Data: a collection of fitness landscapes (doi:10.1038/s41467-024-54723-y)
Over roughly 18,000 sequences, “TetR repression strength (sort-seq, GFP reporter)” has its median near 0.23; the highest 2% begin near 0.68. This is one part of the list.

Target: TetR (class B, Tn10) (UniProt P04483)
Experiment: TetR repression strength (sort-seq, GFP reporter) (relative to tetO2 = 1); higher = stronger repression
Settings: E. coli
Procedure, shortened: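 Repression strength is the top bin index plus one minus the read-weighted mean bin, relative to the unaltered operator's value. A low-copy library in E. coli SIG10-MAX randomized eight operator positions between a constitutive promoter and sfGFP, with TetR expressed constitutively; cells grew 5 h at 37 °C in LB with 50 µg/mL chloramphenicol and 10^6 were FACS-sorted into 13 bins that were each Illumina-sequenced. Three independent transformations were averaged, keeping only members with ≥30 reads in all replicates and CV ≤0.5.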

Chain of UniProt P04483 (P04483 whole entry): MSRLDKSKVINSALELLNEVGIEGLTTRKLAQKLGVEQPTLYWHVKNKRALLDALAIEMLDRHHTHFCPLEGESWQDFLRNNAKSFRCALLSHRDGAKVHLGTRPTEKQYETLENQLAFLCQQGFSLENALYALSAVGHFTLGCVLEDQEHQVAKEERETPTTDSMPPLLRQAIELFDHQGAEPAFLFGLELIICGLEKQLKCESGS

Sequence	TetR repression strength
TCCCGACTAGTGTATGAGA	0.264
TCCCTCTGAGTAACTGAGA	0.253
TCCCTAATAGTGCTTGAGA	1.01
TCCCTCCGAGTGCAAGAGA	0.616
TCCCTAAGAGTCTGGGAGA	0.203
TCCCGATAAGTAAGGGAGA	0.119
TCCCAGCTAGTATATGAGA	0.209
TCCCCATGAGTATGGGAGA	0.0719
TCCCTGGAAGTAAGGGAGA	0.0732
TCCCATAGAGTGGGTGAGA	0.0226
TCCCAATGAGTCGTTGAGA	0.066
TCCCGAAGAGTATGCGAGA	0.253
TCCCAGTGAGTGGAAGAGA	0.333
TCCCAAGGAGTCTCCGAGA	0.0754
TCCCATGGAGTACGGGAGA	0.156
TCCCATTAAGTTTGGGAGA	0.524
TCCCTGTTAGTATGTGAGA	0.212
TCCCTTTGAGTCGGGGAGA	0.183
TCCCGGCTAGTACGTGAGA	0.246
TCCCGTACAGTGATAGAGA	0.63
TCCCGATGAGTTCAGGAGA	0.24
TCCCACGGAGTTGTCGAGA	0.233
TCCCTCTTAGTATTAGAGA	0.321
TCCCTAGCAGTATTGGAGA	0.502
TCCCGGCGAGTGAGGGAGA	0.222
TCCCCTCAAGTGGGAGAGA	0.136

Sequence	TetR repression strength
TCCCGCACAGTCCCTGAGA	0.402
TCCCGTTGAGTGTATGAGA	0.181
TCCCACGTAGTTTGGGAGA	0.174
TCCCGGAAAGTAAAGGAGA	0.377
TCCCTGGTAGTTTGCGAGA	0.191
TCCCAGCTAGTAATGGAGA	0.361
TCCCGGCGAGTGGCCGAGA	0.265
TCCCAGGGAGTACTCGAGA	0.275
TCCCGATGAGTGCGAGAGA	0.286
TCCCACCGAGTGCCGGAGA	0.213
TCCCTATGAGTGTTAGAGA	0.626
TCCCCGTCAGTTATGGAGA	0.134
TCCCCCAGAGTGGTGGAGA	0.149
TCCCAGCAAGTAGGAGAGA	0.066
TCCCCCGCAGTAAACGAGA	0.125
TCCCTTGGAGTAGATGAGA	0.397
TCCCGTTGAGTTGACGAGA	0.167
TCCCCCACAGTGGGGGAGA	0.368
TCCCGTTGAGTTATTGAGA	0.415
TCCCGCAGAGTGAGTGAGA	0.0138
TCCCGTAAAGTATTTGAGA	0.322
TCCCTCGAAGTGGTCGAGA	0.212
TCCCCAGAAGTTAGCGAGA	0.104
TCCCTATCAGTTGAGGAGA	0.618
TCCCTGTAAGTGCTGGAGA	0.324
TCCCCTCTAGTGATCGAGA	0.36

Sequence	TetR repression strength
TCCCCTTGAGTTTGTGAGA	0.323
TCCCAGCTAGTGAACGAGA	0.379
TCCCTCTGAGTTTAGGAGA	0.215
TCCCCCTTAGTTGGGGAGA	0.131
TCCCATCAAGTACGGGAGA	0.184
TCCCAGCAAGTAACGGAGA	0.211
TCCCGCGCAGTTAGGGAGA	0.18
TCCCTGATAGTAAGTGAGA	0.138
TCCCGTGGAGTTGCGGAGA	0.148
TCCCGGGTAGTACTGGAGA	0.177
TCCCGAGAAGTGGGGGAGA	0.315
TCCCTTGCAGTGCTCGAGA	0.0699
TCCCGTTGAGTGACAGAGA	0.438
TCCCTTAGAGTGCGAGAGA	0.0346
TCCCTTAGAGTGAGCGAGA	0.125
TCCCGGACAGTACCTGAGA	0.266
TCCCTTAAAGTGGAGGAGA	0.248
TCCCAAGTAGTAGGAGAGA	0.484
TCCCATTGAGTTATTGAGA	0.544
TCCCGTCTAGTAGCGGAGA	0.276
TCCCCTGCAGTTTCCGAGA	0.35
TCCCGGGTAGTAACTGAGA	0.063
TCCCTTCTAGTGGTGGAGA	0.312
TCCCCCAGAGTGTGTGAGA	0.106
TCCCATGGAGTCTGGGAGA	0.351
TCCCGGCGAGTCTTGGAGA	0.19

Sequence	TetR repression strength
TCCCAGTTAGTGGAGGAGA	0.149
TCCCGCAGAGTATAAGAGA	0.177
TCCCCGGTAGTGGTTGAGA	0.286
TCCCGACCAGTTATTGAGA	0.545
TCCCTGCCAGTTGATGAGA	0.33
TCCCCTTTAGTATGTGAGA	0.435
TCCCGCTGAGTGCACGAGA	0.0645
TCCCTTGGAGTGTACGAGA	0.234
TCCCCTGGAGTCTTCGAGA	0.274
TCCCTTGCAGTCAAGGAGA	0.268
TCCCCGATAGTTACAGAGA	0.311
TCCCGGATAGTTAACGAGA	0.261
TCCCCGGGAGTCAGGGAGA	0.145
TCCCATAAAGTACGGGAGA	0.264
TCCCGAGGAGTCAATGAGA	0.31
TCCCCTGGAGTGTAGGAGA	0.407
TCCCCCTAAGTTTCAGAGA	0.414
TCCCATTAAGTCTGCGAGA	0.2
TCCCGTAGAGTCTGGGAGA	0.201
TCCCTCCGAGTATCTGAGA	0.323
TCCCATCCAGTCATTGAGA	0.364
TCCCATGGAGTTTCTGAGA	0.0409
TCCCGGGCAGTACGGGAGA	0.168
TCCCATACAGTCGTAGAGA	0.0752
